± gives the standard deviation of the averaged measurements. Laboratory Escherichia coli strains with one amino-acid change in an essential protein, pooled on minimal glucose agar with carbenicillin or gentamicin at twice the control MIC (plus kanamycin and chloramphenicol for the plasmids), 48 h. Fold change of barcode share against drug-free plates; higher = less susceptible. Active = above 20 in both replicates (the paper's putatively resistant). '<' = one read or none on drug, '>' = one read or none on a drug-free plate. Shares are relative, so most strains fall below 1 when a few take over. Listed are strains with at least 15 reads on both drug-free plates, and hits; most hits rest on fewer reference reads. Replicate rank correlation about 0.5. Edits are read from barcodes.
B1: nadK; a variant is named by its letters at X, in order (parent)
chain: MNNHFKCIGIVGHPRHPTALTTHEMLYRXLCTKGYEVIVEQQIAHELQLKNVKTGTLAEIGQLADLAVXVGGDGNMLGAARTLARYDIKVIGINRGNLGFLTDLDPDNAQQQLADVLEGHYISEKRFLLEAQVCQQDCQKRISTAXNEVVLHPGKVAHXIEFEVYIDEIFAFSQRSDGLIISTPTGSTAYSLSAGGPILTPSLDAITLVPMXPHTLSARPLVINSSSTIRLRFSHRRNDLEISCDSQIALPIQEGEDVLIRRCDYHLNLIHPKDYSYFNTLSTKLGWSKKLF
B2: tsaC; numbered along this chain (parent)
chain: MNNNLQRDAIAAAIDVLNEERVIAYPTEAVFGVGCDPDSETAVMRLLELKQRPVDKGLILIAANYEQLKPYIDDTMLTDVQRETIFSRWPGPVTFVFPAPATTPRWLTGRFDSLAVRVTDHPLVVALCQAYGKPLVSTSANLSGLPPCRTVDEVRAQFGAAFPVVPGETGGRLNPSEIRDALTGELFRQG
B3: metC; numbered along this chain (parent)
chain: MADKKLDTQLVNAGRSKKYTLGAVNSVIQRASSLVFDSVEAKKHATRNRANGELFYGRRGTLTHFSLQQAMCELEGGAGCVLFPCGAAAVANSILAFIEQGDHVLMTNTAYEPSQDFCSKILSKLGVTTSWFDPLIGADIVKHLQPNTKIVFLESPGSITMEVHDVPAIVAAVRSVVPDAIIMIDNTWAAGVLFKALDFGIDVSIQAATKYLVGHSDAMIGTAVCNARCWEQLRENAYLMGQMVDADTAYITSRGLRTLGVRLRQHHESSLKVAEWLAEHPQVARVNHPALPGSKGHEFWKRDFTGSSGLFSFVLKKKLNNEELANYLDNFSLFSMAYSWGGYESLILANQPEHIAAIRPQGEIDFSGTLIRLHIGLEDVDDLIADLDAGFARIV

Variants of: B1
Experiment: barcode share on antibiotic plates over drug-free plates; higher = less susceptible
Settings: with Escherichia coli (laboratory strain); antibiotic: carbenicillin; 2× MIC (3.1 µg/mL)
Method: (§1)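 A pool of E. coli strains, each edited to carry one amino-acid change in an essential protein, was grown for 48 h on minimal glucose agar with or without antibiotic; strain barcodes were sequenced; mean of two replicates.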

Variant	fold change of barcode share
QVIMF	0.306 ± 0.096
AVIMF	0.241 ± 0.042
WQIMF	0.448 ± 0.36
DVIMF	0.333 ± 0.083
WAIMF	0.295 ± 0.091
WVAMF	0.631 ± 0.45
PVIMF	0.136 ± 0.011
WVWMF	0.464 ± 0.027
WVQMF	0.321 ± 0.034
WVIMQ	0.325 ± 0.11
WVIMA	0.406 ± 0.089
WPIMF	0.0777 ± 0.022

Same assay, conditions: with Escherichia coli (laboratory strain); antibiotic: gentamicin; 2× MIC (MIC 0.45 µg/mL)

Variant	fold change of barcode share
QVIMF	< 0.00427
AVIMF	< 0.00415
WVIPF	< 0.0188
WVIMF I160D	0.346 ± 0.46
WVIMF I160W	0.132 ± 0.18
WVIMF I160Q	< 0.00895
WVIMF I160A	< 0.00839
WVIMF I160P	< 0.00494
WQIMF	0.00912 ± 0.0047
WVIWF	0.00652 ± 0.002
DVIMF	0.012 ± 0.011
WAIMF	0.0144 ± 0.0078
WVIQF	< 0.00481
WVAMF	0.0128 ± 0.0099
PVIMF	0.0102 ± 0.0095
WVWMF	< 0.00791
WVQMF	0.00566 ± 0.0042
WVIMQ	< 0.00296
WVIMA	< 0.00277
WPIMF	0.00561 ± 0.004

Variants of: B2
Experiment: as above
Settings: with Escherichia coli (laboratory strain); antibiotic: carbenicillin; 2× MIC (3.1 µg/mL)
Method: as §1

Variant	fold change of barcode share
V124P	0.249 ± 0.067
V124Q	2.97 ± 0.36
V124D	0.255 ± 0.071
V124W	0.402 ± 0.099
V124A	0.349 ± 0.2
I85P	0.255 ± 0.1
I85A	0.305 ± 0.062
I85D	0.358 ± 0.17
I85W	0.225 ± 0.0044
I85Q	0.433 ± 0.06
F31Q	0.208 ± 0.03
F31W	0.297 ± 0.17
V33W	0.829 ± 0.53
V33Q	0.0728 ± 0.016
L127A	0.42 ± 0.024
L127W	0.278 ± 0.013
L127Q	0.348 ± 0.13
F97A	0.253 ± 0.14
F97W	0.308 ± 0.049

Same assay, conditions: with Escherichia coli (laboratory strain); antibiotic: gentamicin; 2× MIC (MIC 0.45 µg/mL)

Variant	fold change of barcode share
V124P	0.00784 ± 0.0013
V124Q	0.0466 ± 0.0058
V124D	< 0.0058
V124W	< 0.00784
V124A	< 0.00461
I85P	< 0.00334
I85A	0.0062 ± 0.0035
I85W	0.00533 ± 0.0012
I85Q	0.00892 ± 0.0053
F31W	< 0.0182
V33W	< 0.011
V33P	< 0.0138
V33Q	< 0.0111
V33A	< 0.0133
L127A	< 0.0125
L127W	< 0.0191
F97W	< 0.00519

Variants of: B3
Experiment: as above
Settings: with Escherichia coli (laboratory strain); antibiotic: carbenicillin; 2× MIC (3.1 µg/mL)
Method: as §1

Variant	fold change of barcode share
M183P	1.01 ± 0.23
M183Q	0.663 ± 0.22
M183D	> 34.8 [active]
M183A	0.329 ± 0.023
I182P	> 26 [active]
I182A	0.248 ± 0.097
I182W	0.549 ± 0.19
I182Q	0.651 ± 0.49
V173Q	0.978 ± 0.24
V173W	43.9 [active]
V173A	0.38 ± 0.22
V173D	> 39.1 [active]
F311W	0.291 ± 0.1
F311A	0.923 ± 0.63
F311Q	0.21 ± 0.12
I371Q	0.3 ± 0.1
I371W	0.208 ± 0.041
M106Q	0.395 ± 0.033
M106W	0.579 ± 0.26
M106A	0.381 ± 0.042

Same assay, conditions: with Escherichia coli (laboratory strain); antibiotic: gentamicin; 2× MIC (MIC 0.45 µg/mL)

Variant	fold change of barcode share
M183P	0.0155 ± 0.011
M183Q	0.00331 ± 0.00021
M183A	0.152 ± 0.024
I182A	0.00903 ± 0.00017
I182W	0.0155 ± 0.013
I182Q	0.00527 ± 0.00035
V173Q	0.0403 ± 0.013
V173W	0.0641 ± 0.051
V173A	0.00325 ± 0.0014
F311W	< 0.00779
F311A	0.0349 ± 0.034
F311Q	< 0.00822
I371Q	< 0.0117
I371W	< 0.013
I371A	< 0.0125
M106Q	< 0.00649
M106W	< 0.0176
M106A	0.0357 ± 0.042

From the supplement of paper PMC11876631
